Test results as given in the supplement of paper PMC12645437, “Orthogonal IMiD-Degron Pairs Induce Selective Protein Degradation in Cells” (ACS Chemical Biology, 2025).
Some of the results follow.

biological target: no compound (DMSO); assay: log2 fold change of degron read counts, EGFP-low vs EGFP+ sorted cells; higher = lower degron-EGFP level without compound (poor expression or instability); conditions: compound: DMSO control; 18 h
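Further: jurkat cells carrying a lentiviral library of mutant zinc finger degrons fused to EGFP plus mCherry, mCherry+ cells FACS sorted, degron abundance counted by next-generation sequencing.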

Sequence | log2 fold change of degron read counts
FICEICGAPFTQKGNLLRHIKL | -1.1
LDCEICGFHCTQKGNLLRHIKL | 0.508
FICNQCGRRFTQKGNLLRHIKL | -0.0404
FSCNQCGAFFTQKGNLLRHIKL | 0.409
FFCPVCGAFFTQKGNLLRHIKL | 1.36
FNCPVCGANFTQKGNLLRHIKL | 0.389
FGCEICGHCFTQKGNLLRHIKL | -0.155
FWCNVCGASFTQKGNLLRHIKL | 0.496
LYCPICGFCCTQKGNLLRHIKL | 1.38
FHCDQCGATFTQKGNLLRHIKL | -2.83
FICDQCGAKFTQKGNLLRHIKL | -1.2
FDCSVCGHEFTQKGNLLRHIKL | -0.929
FSCNQCGHAFTQKGNLLRHIKL | -0.0533
FSCEICGHWFTQKGNLLRHIKL | 0.345
FNCNQCGHDFTQKGNLLRHIKL | -0.343
FWCEICGAWFTQKGNLLRHIKL | 0.658

Sequence | log2 fold change of degron read counts
FNCNICGANFTQKGNLLRHIKL | -0.745
FTCDICGAKFTQKGNLLRHIKL | -1.08
FGCEICGHSFTQKGNLLRHIKL | -1.17
FNCNQCGADFTQKGNLLRHIKL | -0.62
FACDQCGAVFTQKGNLLRHIKL | -0.585
FMCPVCGAEFTQKGNLLRHIKL | -1.05
FDCPICGAKFTQKGNLLRHIKL | -0.585
FSCSVCGHGFTQKGNLLRHIKL | -0.343
FQCSVCGHNFTQKGNLLRHIKL | -1.02
LYCPICGFFCTQKGNLLRHIKL | 1.92
LICPICGFPCTQKGNLLRHIKL | 1.93
FMCNQCGHKFTQKGNLLRHIKL | -0.241
FGCNQCGHWFTQKGNLLRHIKL | 1.91
FICSVCGHSFTQKGNLLRHIKL | -1.15
FECPICGAGFTQKGNLLRHIKL | -0.843
FNCNVCGAQFTQKGNLLRHIKL | -0.791
